This is one part of the list. Some results are limits rather than exact numbers.

B1: PhoQ; a variant is named by its letters at X, in order, P23837 (parent)
chain: MKKLLRLFFPLSLRVRFLLATAAVVLVLSLAYGMVALIGYSVSFDKTTFRLLRGESNLFYTLAKWENNKLHVELPENIDKQSPTMTLIYDENGQLLWAQRDVPWLMKMIQPDWLKSNGFHEIEADVNDTSLLLSGDHSIQQQLQEVREDDDDAEMTHSVAVNVYPATSRMPKLTIVVVDTIPVELKSSYMVWSWFIYVLSANLLLVIPLLWVAAWWSLRPIEALAKEVRELEEHNRELLNPATTRELTSLVRNLNRLLKSERERYDKYRTTLTDLTHSLKTPLXXLQXXLRSLRSEKMSVSDAEPVMLEQISRISQQIGYYLHRASMRGGTLLSRELHPVAPLLDNLTSALNKVYQRKGVNISLDISPEISFVGEQNDFVEVMGNVLDNACKYCLEFVEISARQTDEHLYIVVEDDGPGIPLSKREVIFDRGQRVDTLRPGQGVGLAVAREITEQYEGKIVAGESMLGGARMEVIFGRQHSAPKDE

The variants in this test derive from B1. Briefly: enrichment ratio after two sorts for PhoP signalling (ratio (wild type AVST 3.29)); higher = more functional. Particulars: with PhoP (E. coli).
With MGIN, the enrichment ratio is not above 0.25.

Consider ELFM, for which the enrichment ratio was not above 0.25.

Turning to IDSG, the enrichment ratio was not above 0.25.

With AAGP, the enrichment ratio was not above 0.25.

Turning to HFPI, the enrichment ratio was not above 0.25.

As for EECH, the enrichment ratio is not above 0.25.

As for FMNR, the enrichment ratio was not above 0.25.

For LSNS, the enrichment ratio was not above 0.25.

As to GNHT, the enrichment ratio is not above 0.25.

As for PVFD, the enrichment ratio was not above 0.25.

With LHHT, the enrichment ratio was not above 0.25.

Regarding SMPE, the enrichment ratio came to 0.359.

As for MVYI, the enrichment ratio is not above 0.25.

Consider DAVY, for which the enrichment ratio was not above 0.25.

On to LMCA, for which the enrichment ratio is not above 0.25.

YHSE: the enrichment ratio is not above 0.25.

On to AQYC, for which the enrichment ratio was not above 0.25.

As for QYWC, the enrichment ratio is not above 0.25.

Turning to PYIA, the enrichment ratio was not above 0.25.

With THEF, the enrichment ratio was not above 0.25.

Take GRNL: the enrichment ratio was not above 0.25.

Regarding HFAL, the enrichment ratio was not above 0.25.

As for MAVA, the enrichment ratio was not above 0.25.

Regarding IIHD, the enrichment ratio is not above 0.25.

DYCE: the enrichment ratio was not above 0.25.

With IHFE, the enrichment ratio was not above 0.25.

ADTK: the enrichment ratio was not above 0.25.

With IQFH, the enrichment ratio is not above 0.25.

Consider ECFD, for which the enrichment ratio is not above 0.25.

As to EFLH, the enrichment ratio is not above 0.25.

Turning to AFAW, the enrichment ratio is not above 0.25.

For the variant TNPV, the enrichment ratio is not above 0.25.

In the case of QVTN, the enrichment ratio is not above 0.25.

On to QKTV, for which the enrichment ratio is not above 0.25.

With MAME, the enrichment ratio is not above 0.25.

Consider IWCP, for which the enrichment ratio is not above 0.25.

PPRY: the enrichment ratio is not above 0.25.

MLQG: the enrichment ratio was not above 0.25.

AHGI: the enrichment ratio is not above 0.25.

For the variant QSYD, the enrichment ratio is not above 0.25.

In the case of YEAT, the enrichment ratio is not above 0.25.

As for QAHF, the enrichment ratio is 15.5.

In the case of IQHC, the enrichment ratio was not above 0.25.

Consider LNDV, for which the enrichment ratio was not above 0.25.

Take GARS: the enrichment ratio was not above 0.25.

Regarding LKHP, the enrichment ratio was not above 0.25.

In the case of PCVL, the enrichment ratio was not above 0.25.

For LTFQ, the enrichment ratio came to 4.48.

With VPPK, the enrichment ratio was not above 0.25.

Consider MVNN, for which the enrichment ratio is not above 0.25.

With LERV, the enrichment ratio is not above 0.25.

With GAIH, the enrichment ratio is not above 0.25.

Consider DRET, for which the enrichment ratio was not above 0.25.

As to PQRS, the enrichment ratio is not above 0.25.

With NYSE, the enrichment ratio is not above 0.25.

In the case of KSHK, the enrichment ratio was not above 0.25.

For TDLY, the enrichment ratio came out at 2.03.

With GVAT, the enrichment ratio was not above 0.25.

ADDQ: the enrichment ratio is not above 0.25.

As to DQYI, the enrichment ratio is not above 0.25.

Regarding FDEC, the enrichment ratio is not above 0.25.

Regarding DGTW, the enrichment ratio is not above 0.25.

MDAY: the enrichment ratio was not above 0.25.

With LPWV, the enrichment ratio was not above 0.25.

On to GCIV, for which the enrichment ratio was not above 0.25.

As to EARD, the enrichment ratio is not above 0.25.

On to YFNH, for which the enrichment ratio is not above 0.25.

Regarding RSTT, the enrichment ratio was not above 0.25.

Take SHPL: the enrichment ratio is not above 0.25.

On to GSPM, for which the enrichment ratio came to 0.891.

Take FEWQ: the enrichment ratio is not above 0.25.

Turning to HSTV, the enrichment ratio came to 9.02.

On to LCVH, for which the enrichment ratio is not above 0.25.

In the case of MTLV, the enrichment ratio was 6.98.

On to FGHS, for which the enrichment ratio is not above 0.25.

With TMRA, the enrichment ratio came to 0.554.

Take PKNS: the enrichment ratio was not above 0.25.

Consider FEVN, for which the enrichment ratio was not above 0.25.

For the variant SWRR, the enrichment ratio was not above 0.25.

Consider DLMY, for which the enrichment ratio was not above 0.25.

With NFPI, the enrichment ratio was not above 0.25.

On to QFIC, for which the enrichment ratio is not above 0.25.

As for PTCE, the enrichment ratio is not above 0.25.

Take IYWV: the enrichment ratio was not above 0.25.

Turning to LGCF, the enrichment ratio was not above 0.25.

As to VHGT, the enrichment ratio was not above 0.25.

In the case of MVMM, the enrichment ratio is not above 0.25.

DFGG: the enrichment ratio is not above 0.25.

Take HWTL: the enrichment ratio is not above 0.25.

As for QEFY, the enrichment ratio is not above 0.25.

Regarding IVVH, the enrichment ratio was not above 0.25.

Consider FLIM, for which the enrichment ratio was not above 0.25.

As to HDTN, the enrichment ratio is not above 0.25.

In the case of TDNF, the enrichment ratio is not above 0.25.

With AHGG, the enrichment ratio is not above 0.25.

On to TPCK, for which the enrichment ratio was not above 0.25.

QSWQ: the enrichment ratio is 33.6.

Consider MYFD, for which the enrichment ratio was not above 0.25.

Regarding QPSP, the enrichment ratio was not above 0.25.

Regarding FEDH, the enrichment ratio is not above 0.25.

In the case of HRFL, the enrichment ratio is not above 0.25.

In the case of LKQC, the enrichment ratio was not above 0.25.

As for IKQS, the enrichment ratio was not above 0.25.

Take DWYA: the enrichment ratio was not above 0.25.

As to VQEW, the enrichment ratio is not above 0.25.

With DNVG, the enrichment ratio is not above 0.25.

As to ILNI, the enrichment ratio is not above 0.25.

With PEQE, the enrichment ratio is not above 0.25.

Turning to ILPI, the enrichment ratio was not above 0.25.

In the case of CPFS, the enrichment ratio was not above 0.25.

On to GHPL, for which the enrichment ratio is not above 0.25.

As to RHVN, the enrichment ratio is not above 0.25.

As to WPDW, the enrichment ratio is not above 0.25.

On to LVDL, for which the enrichment ratio is not above 0.25.

For EKAW, the enrichment ratio is not above 0.25.

With RSHA, the enrichment ratio is not above 0.25.

In the case of LTSE, the enrichment ratio is not above 0.25.

On to KLHE, for which the enrichment ratio is not above 0.25.

Turning to KADQ, the enrichment ratio is not above 0.25.

With ESGI, the enrichment ratio was not above 0.25.

Regarding WKWV, the enrichment ratio was not above 0.25.

As to DQHP, the enrichment ratio is not above 0.25.

In the case of SIYH, the enrichment ratio is not above 0.25.

As for KVSN, the enrichment ratio is not above 0.25.

On to FSNQ, for which the enrichment ratio is not above 0.25.

In the case of VPDF, the enrichment ratio was not above 0.25.

Consider TCIY, for which the enrichment ratio is not above 0.25.

With VTNH, the enrichment ratio is not above 0.25.

Take TKEH: the enrichment ratio is not above 0.25.

On to WSRA, for which the enrichment ratio is not above 0.25.

As to ITSS, the enrichment ratio was not above 0.25.

With NENV, the enrichment ratio is not above 0.25.

TDNS: the enrichment ratio stood at 3.33.

Consider ASMV, for which the enrichment ratio turned out to be 7.76.

Consider FWCR, for which the enrichment ratio is not above 0.25.

Turning to QVFF, the enrichment ratio was not above 0.25.

Consider SCFQ, for which the enrichment ratio came to 0.903.

Turning to ITRH, the enrichment ratio was not above 0.25.

As to DNPK, the enrichment ratio was not above 0.25.

As for WRIS, the enrichment ratio is not above 0.25.

Regarding WHQM, the enrichment ratio is not above 0.25.

VRMP: the enrichment ratio is not above 0.25.

Turning to LPVY, the enrichment ratio was not above 0.25.

FTEL: the enrichment ratio was not above 0.25.

As for RRCS, the enrichment ratio is not above 0.25.

Consider FFPF, for which the enrichment ratio is not above 0.25.

Turning to NRTT, the enrichment ratio is not above 0.25.

In the case of WSFN, the enrichment ratio is not above 0.25.

Take KYHG: the enrichment ratio was not above 0.25.

Regarding YRQF, the enrichment ratio is not above 0.25.

As for VCQH, the enrichment ratio was not above 0.25.

On to HENL, for which the enrichment ratio was not above 0.25.

Consider DASA, for which the enrichment ratio was not above 0.25.

These data come from a collection of fitness landscapes (doi:10.1126/science.1257360).
